Several values for one entry are separate records, joined by “and”; a condition that tells them apart may be missing. Equal entries are not always repeated. Screen size: about 420,000 compounds; about 64,000 (15%) were called active. Inconclusive means that the source gave no clear call. Such entries were picked first, then a sample of the others. The call rests on the fitted dose curve; in most records, active means well fitted inhibition curve with a large enough effect; inconclusive means small, poorly fitted or top-dose-only effect; inactive means flat fitted curve, though single readings scatter. Potencies beside an inconclusive call are fits to weak or partial responses and may not hold up.
experiment: qHTS for Inhibitors of human tyrosyl-DNA phosphodiesterase 1 (TDP1): qHTS in cells in absence of CPT; settings: DT40 Tdp1-/- hTDP1 cells, no CPT, ATP luminescence, 48 h; activity change, negative = growth inhibition: at 46.2 µM (top of the series) unless noted; further: nearly all actives have a fitted effect of over 55% in size
Method in brief: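 Camptothecin absent (DMSO only). Human TDP1-complemented DT40 knockout cells, 400 cells/well, 37 °C for minimum 48 hr; ATP measured via CellTiter-Glo, 30 min dark incubation, luminescence.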
On the % scale 0 is the no-effect control and ±100 the full control effect; potency means the concentration at half of the fitted maximal effect; tags describe the fitted curve by direction and shape.

SMILES | Potency | activity change, negative = growth inhibition
Cc1ccc(NC(=O)CSc2nc3c(c(=O)[nH]2)CN(Cc2ccccc2)CC3)cc1Cl | inconclusive: 18.4 µM [inhibitor, single point] | 
CC(=O)N1c2ccccc2C(=O)C1N1CCN(c2cccc(C)c2C)CC1 (configuration not stated) | inactive | 
O=C(/C=C/c1ccc(Cl)cc1)N1CCN(Cc2ccccc2)CC1 | inconclusive: 20.6 µM [inhibitor, single point] | 
O=C(Nc1cc(Cl)c(Cl)cc1Cl)c1cccnc1 | inactive | 
Cc1cc(NC(=O)CSc2nnc(-c3ccc([N+](=O)[O-])cc3)o2)no1 | inactive | 
CCCOc1ccc(CC(=O)NCC2(c3ccccc3)CCOCC2)cc1OC | inconclusive: 29.1 µM [inhibitor, single point] | 
O=[N+]([O-])c1cc(Cl)cc(/C=N/Nc2nc3ccccc3s2)c1O | active: 0.92 µM | 
CC(C)(C)S(=O)(=O)N1C[C@@H]2CC/C=C\C/C(c3ccccc3)=C\2[C@H]1CCO | inconclusive: 29.1 µM [inhibitor, single point] | 
Cc1cccc(N2CCN(C(=O)CCc3nc4ccccc4c(=O)[nH]3)CC2)c1C | inconclusive: 25.9 µM [inhibitor, single point] | 
CC(C)(Oc1ccc(Cl)cc1)C(=O)Nc1cccc(-c2cn3cccnc3n2)c1 | inconclusive: 29.1 µM [inhibitor, single point] | 
CCCCC(=O)NC(=S)Nc1ccc(S(=O)(=O)N2CCCC2)cc1 | inconclusive: 10.3 µM [inhibitor, partial curve, poor fit] | 
CC(CNC(=O)c1sc2ncccc2c1-n1cccc1)c1ccccc1 (configuration not stated) | active: 25.9 µM | 
COc1ccc(N=c2scc(C)n2CCCN2CCCC2=O)cc1 | inactive | 
CCOC(=O)c1c(NC(=O)COC(=O)CCCOc2ccc(OC)cc2)sc(C(=O)N(C)C)c1C | inconclusive: 5.17 µM [inhibitor, partial curve, poor fit] | 
COc1ccc(N2CCN(C(=O)c3[nH]c(C(F)(F)F)nc3-c3ccccc3)CC2)cc1 | inconclusive: 25.9 µM [inhibitor, single point] | 
Nc1cccc(Oc2c(F)c(F)c(Oc3cccc(N)c3)c(F)c2F)c1 | inconclusive: 23.1 µM [inhibitor, single point] | 
Cc1nn(CC(=O)Nc2ccc(N(C)C)cc2)c(C)c1[N+](=O)[O-] | inactive | 
CC(=O)C[C@@H](O)CC(=O)[C@H]1OC(=O)CCCCCCCCc2ccccc21 |  | inconclusive: -30% [inhibitor]
Cc1ccc(N=Cc2cc(Br)cc(Cl)c2O)cc1 | inactive | 
O=C(CSc1ccccc1)NNC(=O)c1ccncc1 | inactive | 
CCOC(=O)c1[nH]c2ccc(OC)cc2c1NC(=O)c1cccc(OC)c1 | inconclusive: 20.6 µM [inhibitor, single point] | 
COc1cccc(C(=O)Nc2ccccc2N2CCN(C(=O)c3ccccc3)CC2)c1 | active: 20.6 µM | 
Cc1ccc(NC(=O)CC2C(=O)NCCN2C(=O)c2ccc(F)cc2)cc1 (configuration not stated) | inactive | 
Cc1nc2scc(C)n2c(=O)c1S(=O)(=O)Nc1ccc(N2CCN(C(=O)C(C)C)CC2)cc1 | inconclusive: 10.3 µM [inhibitor, partial curve, poor fit] and inconclusive: 20.6 µM [inhibitor, single point] | 

SMILES | Potency | activity change, negative = growth inhibition
CN(C)c1ccc(/C=C2\C=Cc3ccccc32)cc1N | inconclusive: 25.1 µM [inhibitor, single point] | 
Cc1ccc(CS(=O)Cc2ccc(C(=O)NC3CCCC(C)C3C)o2)cc1 (configuration not stated) | inconclusive: 25.9 µM [inhibitor, single point] | 
CN(Cc1ccc(C(C)(C)C)cc1)C(=O)c1ccc2c(=O)n3c(nc2c1)CCC3 | active: 20.6 µM | 
CN(C)/C=C1/NC(=S)NC1=O | inactive | 
CCOc1ccc(N2C(=O)CC(Sc3nccc(C)n3)C2=O)cc1 (configuration not stated) | inconclusive: 29.1 µM [inhibitor, single point] | 
COc1ccc(CCNC(=O)c2cccc(S(=O)(=O)N3CCCCC3)c2)cc1 | inconclusive: 20.6 µM [inhibitor, single point] | 
CN(C)C(=O)CCc1ccc2c3c([nH]c2c1)[C@]1(CCc2ccccc2)[C@@H](C(=O)N2CCCCC2)C[C@H](CC(=O)NCc2cccc(C(F)(F)F)c2)C(=O)N1CC3 | active: 20.6 µM | 
COc1ccc(C(=O)C[n+]2cccc3cc(OC)ccc32)cc1 | active: 20.6 µM | 
CC(=O)c1cc2c(cc1C)CCCC2(C)C | inconclusive: 5.17 µM [inhibitor, partial curve] | 
CC(C)S(=O)(=O)N1CCCC(c2cc(C(=O)Nc3ccc(F)c(Cl)c3)no2)C1 (configuration not stated) | inconclusive: 5.8 µM [inhibitor, partial curve] | 
O=[N+]([O-])c1ccc(/C=N/n2c(C3CCCCC3)n[nH]c2=S)cc1 | active: 16.4 µM | 
Cc1ccc2nc(NC(=O)c3ccc4ncsc4c3)sc2c1 | inconclusive: 32.6 µM [inhibitor, single point] | 
CC(=O)Nc1ccc(C(=O)Nc2nc(-c3cccnc3)cs2)cc1 | inconclusive: 29.1 µM [inhibitor, partial curve, poor fit] | 
COc1ccccc1CN1C(=O)C(C)ON=C1c1ccccc1F (configuration not stated) | inconclusive: 16.4 µM [inhibitor, single point] | 
C=CCNC(=O)CSc1n[nH]c(-c2cc(Cl)ccc2OC)n1 | inactive | 
O=C(c1cc(S(=O)(=O)N2CCOCC2)ccc1Cl)N1CCCCC1CO (configuration not stated) | inactive | 
O=C(COc1ccccc1[N+](=O)[O-])Nc1cccc(Cl)c1N1CCOCC1 | active: 14.6 µM | 
CC(=O)c1cc(CN2CCC(n3nccc3NC(=O)c3ccccc3)CC2)cs1 | inactive | 
O=C(CC(c1cccs1)N1Cc2ccccc2C1=O)Nc1ccccc1F (configuration not stated) | active: 20.6 µM | 
CC(=O)OC1CCC2(C)C(=CCC3C2CCC2(C)C3CC3ON=C(C)C32)C1 (configuration not stated) | inconclusive: 23.1 µM [inhibitor, partial curve, poor fit] | 
CN(C)CCCOC(=O)c1ccc(Cl)cc1 | inactive | 
Cc1c(C(=O)N2CCN(C(=O)c3ccco3)CC2)sc2nc(-c3ccc(F)cc3)cn12 | inconclusive: 29.1 µM [inhibitor, single point] | 
O=c1[nH]c2c(c(=O)n1-c1ccccc1)CCO2 | inactive | 
COC(=O)C1=C(C)N(CCCC(=O)O)C(=O)NC1c1ccccc1OS(=O)(=O)c1ccc([N+](=O)[O-])cc1 (configuration not stated) | inactive | 

SMILES | Potency | activity change, negative = growth inhibition
Cc1cc2oc(C(=O)N3CCN(CCc4ccccn4)CC3)c(C)c2cc1C | inconclusive: 18.4 µM [inhibitor, single point] | 
COc1cc(NC(=S)N2CCN(C)CC2)cc(OC)c1 | inactive | 
CCCCOc1ccc(-c2ncc(N)cn2)cc1 | inactive | 
Cc1ccccc1Oc1ncnc2oc(-c3ccccc3)cc12 | inconclusive: 8.2 µM [inhibitor, partial curve] | 
Cc1ccc(NC(=O)CN2C(=O)CSc3ccc(S(=O)(=O)N(C)C)cc32)cc1C | inconclusive: 16.4 µM [inhibitor, single point] | 
O=C(Nc1cccc(-c2nnc(-c3ccco3)o2)c1)C(c1ccccc1)c1ccccc1 | active: 16.4 µM | 
O=CN1N=C(c2ccccc2)CC1c1ccccc1[N+](=O)[O-] (configuration not stated) | inconclusive: 18.4 µM [inhibitor, single point] | 
COc1cc(Br)c(CC(=O)NO)cc1OC | inactive | 
O=C(NCCc1ccccc1)c1cccc2c1C(=O)c1ccc(N3CCOCC3)cc1S2(=O)=O | inconclusive: 6.51 µM [inhibitor, partial curve] | 
Cc1ccc(CSC2=Nc3ccccc3C3=NC(CCC(=O)NCCc4ccccc4)C(=O)N23)cc1 (configuration not stated) | inconclusive: 18.4 µM [inhibitor, single point] | 
O=C(CCS(=O)(=O)c1cccs1)Nc1ccc(C(=O)NC2CCN(Cc3ccccc3)CC2)cc1 | inconclusive: 16.4 µM [inhibitor, single point] | 
Cc1ccc(C(=O)NCCSc2c(C)[nH]c3ccccc23)cc1C | active: 25.9 µM | 
Cc1[nH]c2ccc(C(=O)OC(C)C(=O)NC3(C#N)CCCCC3)cc2c1C (configuration not stated) | inconclusive: 9.2 µM [inhibitor, partial curve] | 
CCOC(=O)c1c(C)[nH]c(C(=O)COC(=O)c2cccnc2Cl)c1C | inconclusive: 23.1 µM [inhibitor, single point] | 
CCn1c(SCC#N)nc2cc(S(=O)(=O)N3CCOCC3)ccc21 | inactive | 
NC(=O)c1cnccc1C=Cc1ccccc1 | inactive | 
O=S(=O)(Nc1cccc(Cl)c1)c1ccc(-n2cccn2)cc1 |  | inconclusive: -32.3% [inhibitor]
Cc1cc(C)c2c(-n3cccc3)c(NC(=O)OCc3ccccc3)sc2n1 | inconclusive: 13 µM [inhibitor, partial curve, poor fit] | 
Cc1ccc(-c2nn(CCC(=O)Nc3ccc(Cl)c(Cl)c3)c(=O)c3ccccc23)cc1 | active: 23.1 µM | 
CCOCCCNC(=O)c1cc2cc3cc(OC)ccc3nc2o1 | inactive | 
COc1ccccc1NC(=O)CSc1nc2ccccc2c(=O)n1CC1CCCO1 (configuration not stated) | inconclusive: 29.1 µM [inhibitor, single point] | 
Cc1cc(C)c(C)c(S(=O)(=O)NC2CCN(Cc3ccccc3)CC2)c1C | inconclusive: 18.4 µM [inhibitor, single point] | 
O=C(O)c1ccc2c(=O)n3cc(C(=O)c4ccccc4O)cc(Cl)c3nc2c1 | inconclusive: 29.1 µM [inhibitor, single point] | 
COc1ccccc1NC(=O)CSc1nnc(C2CCCCC2)n1C | inactive | 

— PubChem BioAssay AID686978 (National Center for Advancing Translational Sciences (NCATS), 2013)
